In patent US12551573B2, “Compositions and methods for the targeting of PCSK9” (Scribe Therapeutics Inc., priority 2022, dated 2026):
Substitutions are numbered along the chain they refer to. Where two headings read alike, the source gives them in different places.

Tested on: HBEGF locus
Assay type: cell-based, human
[1] = high-throughput screen of dXR repression of the HBEGF gene, change in abundance of each domain in the library before and after diphtheria toxin selection
[2] = repressor domain in dXR, repression of the HBEGF gene, abundance of domain in library after vs before diphtheria toxin selection

B1: DOMAIN_7534 (protein, listed as Gopherus agassizii)
chain: KHGPVTFEEVAVYFTREEWALLDPTQRALYRDVMQENYEMVVLLGFLNSKPDVISQLEQGEEPCIVDLQGSEKEVLPRAAC
[1]
  Log2 (fold change): 3.4086

B2: DOMAIN_7850 (protein, listed as Terrapene carolina)
chain: FQMPVTFEEVAVYFTQGQGALLDPAQRALYRDVMQENYEMVTSLGFPIPKPELIARLERGEEPWVPDLQACKERRLPRCTR
[2]
  Log2 (fold change): 3.124

B3: DOMAIN_8054 (protein, listed as Cavia porcellus)
chain: RPRALKFADVAVYFSLEEWGCLRPAQRTLYRNVMRETYGHLGALGCAGPKPALISWLERNTDDWEPAALDPQEYPRGVTVQ
[2]
  Log2 (fold change): 3.5889

B4: DOMAIN_6802 (protein, listed as Pantherophis guttatus)
chain: QGSVSFEDVAVYFTEEEWALLDSSQRALHREVMLENSRNLAAVGYGQEHKNYQEPSLALFQSEERMLGIQRVLQKTRRSCL
[1]
  Log2 (fold change): 3.0403

B5: DOMAIN_8308 (protein)
chain: SKAPVTFGDLAIYFSQEEWEWLSPIQKDLYEDVMLENYTNLVSLGLSSRRPNVIALLEKGKAPWMVEPPRRRQGPDSRSKC
modifications: Marmota monax
[2]
  Log2 (fold change): 2.6564

B6: DOMAIN_7895 (protein, listed as Patagioenas fasciata)
chain: QDAVTFKDVAIYFSPEEWVRLSAGQRELYQEVMLDNYELVTSLDRECKLLYKMDPEEEPCEGVPCRGVDSGALDNSSTSAC
[2]
  Log2 (fold change): 3.2254

B7: DOMAIN_7641 (protein, listed as Gallus gallus)
chain: LQEPVSFAEVAVYFSREEWALLDPAQRALYRDVMLETYQCVAWLAPLPAPKPGLISLLEGGEDPWIPDVRSPEAVPGDLSP
[2]
  Log2 (fold change): 3.6727

B8: DOMAIN_7745 (protein)
chain: B7 chain with Y13C, A28V, W43S, P46S, P48L, A49T, G53V, D63E, V75T
modifications: Meleagris gallopavo
[2]
  Log2 (fold change): 3.4946

B9: DOMAIN_7925 (protein, listed as Gallus gallus)
chain: B7 chain with L1C, P46S, D68G, V75M
[2]
  Log2 (fold change): 3.3919

B10: DOMAIN_8226 (protein, listed as Rattus norvegicus)
chain: ARGLMAFEDVAVYFSQEEWMFLNAAQRALYRHVMLENFALVDSIGPSVSRPRVIIQLQRGEEPWVPNRTIAGPGRGTHRRS
[2]
  Log2 (fold change): 2.4602

B11: DOMAIN_8467 (protein, listed as Mesocricetus auratus)
chain: DAVTYQDLHITFTQEEWALLDSSQRNLYKDVMLETYMNLNAIGYKWEDNDIEQHCRSPQRHGRHERSPTREKPSAYMQCDK
[2]
  Log2 (fold change): 3.8156

B12: DOMAIN_7711 (protein, listed as Columba livia)
chain: GKMSVTFEDVALYFSPEEWAKLSGCQRQLYQEVMLENYQMVASLGWANVKPEIICKMEREETPCVPDVPGKQQRHQSPVPV
[2]
  Log2 (fold change): 3.7965

B13: DOMAIN_7750 (protein, listed as Columba livia)
chain: B12 chain with Q31R, N48T, P66L, V68P, K71E, R74M, V81A
[2]
  Log2 (fold change): 2.8111

B14: DOMAIN_7824 (protein, listed as Columba livia)
chain: B12 chain with Q31R, V49I, P63L, D67A, V68P, G70R, K71E, Q72W, H75D, V81A
[2]
  Log2 (fold change): 2.9383

B15: DOMAIN_8151 (protein, listed as Cricetulus griseus)
chain: EQGLVSFEDVAVDFTWQEWQELDAAQRTLYRDVMLENYSSLVSLGHCVTKPELIFRLEHGFGPWSIGETSLWNLPGVLEVP
[2]
  Log2 (fold change): 3.1527

B16: DOMAIN_8216 (protein, listed as Cricetulus griseus)
chain: MLSFWDVAIEFSPEERECLDPAQWSLYRDVMLENYSNLLFLGLAVPKPHLVTFLEQRQESSGVKRQAAATVHPGRIPNDYN
[2]
  Log2 (fold change): 3.1747

B17: DOMAIN_8489 (protein, listed as Mus caroli)
chain: AHSMVMFRDVTVDFSQEEWECLSSYERDLYRDVMLENYSHLVSLAGCSISKPDVITLLEQGKEPWMIVRAEKRRWSRDLES
[2]
  Log2 (fold change): 2.8336

B18: DOMAIN_8235 (protein, listed as Mus caroli)
chain: SQVSVTFEDVAVLFTRDEWKKLVPSQRSLYREVMLENYSNLASLAGFPFTKPKVISLLQQGEDPWKVEEEGPGGFSLGLKC
[2]
  Log2 (fold change): 2.8965

B19: DOMAIN_8041 (protein, listed as Dipodomys ordii)
chain: APGSVTFRDVAIDFSQEEWKWLQPAQRDLYRCVMLENYGHLVSLGLCISKPDVVSLLEQGKEPWLGKGGVNRDLFSVSDGK
[2]
  Log2 (fold change): 3.6568

B20: DOMAIN_8303 (protein, listed as Ictidomys tridecemlineatus)
chain: SQEAVTFEDVAVYFTQNQWASLEPAQKALYQEVMLENYANITSLAALPFPKPDLIFQLELGEAPWVPDSWRPVGEEALGGR
[2]
  Log2 (fold change): 3.6843

B21: DOMAIN_8289 (protein, listed as Peromyscus maniculatus)
chain: DAVTYEDVHVNFTHEEWALLDPSQKSLYKDVMLETYWNLTSIGYKWEDHNFEENCQSSRRHGRHINCPSGYKPCEHEEYGK
[2]
  Log2 (fold change): 3.3026

B22: DOMAIN_8301 (protein, listed as Mesocricetus auratus)
chain: MNTVTYDDVHVNFTWEEWTLLDPSQKNLYKDVMLETYRNLTAVGYSWEDHNVEEHCQSYRRHSRLERSHTGEKSSVHTQCV
[2]
  Log2 (fold change): 3.1084

B23: DOMAIN_8182 (protein, listed as Mus caroli)
chain: QASVTFEDVAVRFTQEEWALLDPSQKILYGDVMQETYRNLTSVGINWECWDLEAYFRSLERNLRVQLVKRDCELKNNDPCG
[2]
  Log2 (fold change): 2.2411

B24: DOMAIN_7653 (protein, listed as Gallus gallus)
chain: AREPVSFVEVAVYFSREEWALLDPAQRALYRDVMLETYESVASLGPFPAPKPVVISLLEGGDDPWIPDVHSPEAVSGDFSP
[2]
  Log2 (fold change): 3.3772

B25: DOMAIN_8013 (protein, listed as Callipepla squamata)
chain: LQEPVSFEEVAVYFSREEWALLDPAQRALYRDVMLETYECVASLAPLPAPKPMVISLLEEGEEPWVPDVGSPEAVAGDVSP
[2]
  Log2 (fold change): 3.9783

B26: DOMAIN_8154 (protein, listed as Cricetulus griseus)
chain: KVKQFSFQSLLTFKDLAINFSKEEWEYLNTSQKDLYKDVMLENYSNLVSVGLSESKPELVTCLEQNKEPWMVHIVEAEGLE
[2]
  Log2 (fold change): 2.8774

B27: DOMAIN_8014 (protein, listed as Callipepla squamata)
chain: EPVSFEEVAVYFSREEWALLDPAQRALYRHVMLETYECVASLAPLPAPKPMVISLLEEGEEPWIPDEGSRQAVAGDVSPGE
[2]
  Log2 (fold change): 3.7425

B28: DOMAIN_8353 (protein, listed as Peromyscus maniculatus)
chain: SKAPVTFGDLAIYFSQEEWEWLSPIQKDLYEDVMLENYQNLVLLGLACRRPNIITLLEKGKAPWVVEPSRRRRGPESGSKC
[2]
  Log2 (fold change): 2.7989

B29: DOMAIN_8418 (protein, listed as Cricetulus griseus)
chain: B28 chain with P4S, Q16R, N40T, L43S, A47V, V65M, C81R
[2]
  Log2 (fold change): 2.4014

B30: DOMAIN_8167 (protein, listed as Mus musculus)
chain: MESVSFEDVAVKFTQEEWAVLDPSQKKLYKDVMQETLKNLASIGNKSGKQKVINEYGKLWRKLSSHLAGKFSDYNENHQCA
[2]
  Log2 (fold change): 3.9362

B31: DOMAIN_7553 (protein, listed as Gopherus agassizii)
chain: FQMPVTFEEVAVYFTQGQGALLDPAQRALYRDVMQENYKMVTSLGFPLPKPELISRLEQGEEPWVPDLQACEERESLSGNH
[1]
  Log2 (fold change): 2.9036

B32: DOMAIN_8370 (protein, listed as Cavia porcellus)
chain: QEIPVSFKDVVVGFTQEEWHWLNPVQRALYRDVMLETYSNLVSVGYEGTKPDVILRLEQEEAPWVCEAPCPGCCCWEDIWQ
[2]
  Log2 (fold change): 3.5737

B33: DOMAIN_8503 (protein, listed as Mus caroli)
chain: SQCLLTFGDVSVDFSQEEWECLDSAQRALYIDVMLENYSNLVSVENYSTCDTVHQHVNTGKESCQRNNLGEMLRNPSHDAL
[1]
  Log2 (fold change): 2.8193

B34: DOMAIN_8148 (protein, listed as Cricetulus griseus)
chain: KPELVSFEDVAVYFSPHEWGCLRPAQRALYREVMRETYGLLGALGFPGPKPALISWMEQESEAWSPAAQDPAEGESLGGAL
[2]
  Log2 (fold change): 3.6904

B35: DOMAIN_7678 (protein)
chain: VPVTFEDVAVRFSAEEWEILEGWQKELHKEVMEENYQLLISLGQPVPTLALLALTAEREAAGGQIRSVSGERELASKGGSS
modifications: Chelonia mydas
[2]
  Log2 (fold change): 2.7348

B36: DOMAIN_8179 (protein, listed as Mesocricetus auratus)
chain: SQVSVTFEDVAVLFTRDEWKKLDHSQRSLYREVMLENYSNLASLGFPFAKPEMISVLQQGEEPWKVEKRSLGFSLGCNSSL
[2]
  Log2 (fold change): 3.0623

B37: DOMAIN_8305 (protein, listed as Ictidomys tridecemlineatus)
chain: SQGPVLFEDVSVDFTQKEWQLLDPAQRRLYRDVMLENYRHLESLGHCVTKPELIRRLEQGEEPWILKREVPSHSHAEVQRA
[2]
  Log2 (fold change): 2.5554

B38: DOMAIN_8412 (protein, listed as Mus musculus)
chain: QCLLTFKDVFLDFSSEEWECLNFAQRTLYMDVMLENYNNLLFVENHCICGNYEKEKVLEQDTQHIVNEHGHNRKKSSKCNE
[2]
  Log2 (fold change): 2.4486
